Source: the supplement of paper PMC7266297
The other results are listed elsewhere or left out. Single values are uncertain, as repeats are few or missing.

System: KB-3-1
Experiment: growth inhibition relative to DMSO control (SRB); cervical cancer cells: KB-3-1 is the parent and KB-V1 overexpresses MDR1; SRB is the sulforhodamine B stain; higher = more growth inhibition
Details: 1 µM; 72 h
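Also: Read-out is SRB optical density at 490 nm, with the control being wells given 0.5% DMSO vehicle, and compound added one day after cells were plated.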

**Q.** How did the growth inhibition turn out when `COc1ccc(C2CNC(=O)C2)cc1OC1CCCC1` (stereo not drawn) [Rolipram] was run?
**A.** 16.5%

**Q.** For `COc1ccc([C@H]2CNC(=O)C2)cc1OC1CCCC1` [S- (+)-Rolipram], which growth inhibition is on record?
**A.** < 0%

**Q.** Which growth inhibition does the source give for `Nc1nc(CC(=O)Nc2ccc(CCNC[C@H](O)c3ccccc3)cc2)cs1` [Mirabegron] here?
**A.** < 0%

**Q.** Which growth inhibition does the source give for `O=C(c1ccc(F)cc1)C1CCN(CCn2c(=O)[nH]c3ccccc3c2=O)CC1` [Ketanserin] here?
**A.** < 0%

**Q.** How did the growth inhibition turn out when `CN/C(=N\CCSCc1nc[nH]c1C)NC#N` [Cimetidine] was run?
**A.** 42.4%

**Q.** With `Clc1ccc(NN=C(c2ccccc2)c2ccccn2)nc1` as the compound, how does the growth inhibition read?
**A.** 60.5%

**Q.** For `COC(=O)N[C@H](C(=O)N1CCC[C@H]1c1ncc(-c2ccc(-c3ccc(-c4cnc([C@@H]5CCCN5C(=O)[C@@H](NC(=O)OC)C(C)C)[nH]4)cc3)cc2)[nH]1)C(C)C`, which growth inhibition is on record?
**A.** 33%

**Q.** How did the growth inhibition turn out when `CC(C)OC(=O)C1=CN(C(=O)c2ccc(F)c(F)c2)CC(C)(C)c2c1[nH]c1ccccc21` was run?
**A.** < 0%

**Q.** `COc1cc2ncnc(Nc3ccc(O)c(Br)c3)c2cc1OC` was tested. Which growth inhibition did it give?
**A.** 29.4%

**Q.** Which growth inhibition does the source give for `Fc1ccc(C(c2ccc(F)cc2)N2CCN(C/C=C/c3ccccc3)CC2)cc1` [Flunarizine 2HCl] here?
**A.** 45.1%

**Q.** `O=C(/C=C/c1ccc(O)c(O)c1)c1ccc(O)cc1O` [Butein] was tested. Which growth inhibition did it give?
**A.** 48.8%

**Q.** How did the growth inhibition turn out when `Cc1ccc(-c2cc(C(F)(F)F)nn2-c2ccc(S(N)(=O)=O)cc2)cc1` [Celecoxib] was run?
**A.** < 0%

**Q.** `C[C@@H]1C(=O)O[C@H]2C[C@@]34[C@H]5C[C@@H](C(C)(C)C)[C@]36[C@@H](OC(=O)[C@@H]6O)O[C@@]4(C(=O)O5)[C@]21O` [Ginkgolide A] was tested. Which growth inhibition did it give?
**A.** 41.7%
